{"source": "paper PMC7819943", "about": "“Rice protein-binding microarrays: a tool to detect cis-acting elements near promoter regions in rice”", "note": "The other results are listed elsewhere or left out."}
{"target": "T1, OsWOX13 (Oryza sativa, UniProt Q5QMM3 1-267)", "T1 sequence": "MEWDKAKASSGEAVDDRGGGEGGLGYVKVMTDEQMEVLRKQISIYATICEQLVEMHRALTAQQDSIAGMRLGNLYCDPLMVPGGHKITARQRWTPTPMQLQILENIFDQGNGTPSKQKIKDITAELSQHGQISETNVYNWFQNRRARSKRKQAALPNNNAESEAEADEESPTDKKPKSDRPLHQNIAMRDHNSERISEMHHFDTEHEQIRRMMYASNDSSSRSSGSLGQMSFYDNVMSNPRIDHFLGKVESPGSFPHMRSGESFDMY", "assay": "protein-binding microarray (RPBM); PBS, 2% BSA, 51.3 ng/ul salmon testes DNA, 50 uM zinc acetate, 200 nM TF, 25 C, 1 h; high values mean tight binding", "settings": "protein: recombinant; tags: N-terminal polyhistidine and DsRed monomer fusion (pET32a); label: CyDye5-dUTP incorporated in the synthesized complementary strand; 3' TTTTT single-stranded linker to array surface; dsDNA, one strand shown", "summary_of_the_method": "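A custom Agilent array was converted to double-stranded form by primer extension with Cy5-dUTP and blocked with 2% BSA. Protein at 200 nM in PBS with 2% BSA, salmon testes DNA and 50 µM zinc acetate was applied for 1 h at 25 °C, followed by washing. The proteins were polyhistidine–DsRed N-terminal fusions of transcription factors, expressed in E. coli BL21-CodonPlus and Ni–NTA-purified. The binding signal is per-feature fluorescence intensity (arbitrary units) from an Axon 4000B scanner.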"}
{"sequence": "AACAATTGATTAGACCAGAACCAGGAGATTCTAATTTCTACGGAGTCACCTAGTGCAG", "binding signal": "27300 fluorescence intensity (a.u.)"}
{"sequence": "ACTATTGATGGAAGCAAAACAGCTCAAAGTCAAAACCGATCGGAGTCACCTAGTGCAG", "binding signal": "4150 fluorescence intensity (a.u.)"}
{"sequence": "CTTGATTAGAAGTTAACCGCAACTCTAGAAAATCATTGTTCGGAGTCACCTAGTGCAG", "binding signal": "40800 fluorescence intensity (a.u.)"}
{"sequence": "CTAATACTTAATTAATCACGCGCTAATGGACCGTTTCGTTCGGAGTCACCTAGTGCAG", "binding signal": "20400 fluorescence intensity (a.u.)"}
{"sequence": "GGAGTCGGATACATAATTGGATCGCGGATCGACTTGCCATCGGAGTCACCTAGTGCAG", "binding signal": "4760 fluorescence intensity (a.u.)"}
{"sequence": "GGTGAGCTATTAGTACATGATTAATTGAGTATAAACTATTCGGAGTCACCTAGTGCAG", "binding signal": "10800 fluorescence intensity (a.u.)"}
{"sequence": "AACTTCCAAAACAAGCCCTTTGATTGGATGAACCAGCCGGCGGAGTCACCTAGTGCAG", "binding signal": "5060 fluorescence intensity (a.u.)"}
{"sequence": "CCAAATAGCTATCAAAATTTGCCCAACTTTAACCGTGGCACGGAGTCACCTAGTGCAG", "binding signal": "4710 fluorescence intensity (a.u.)"}
{"sequence": "ATCCTAGTAATTATAGCCGTTGGAAATGAAAAGAAACGATCGGAGTCACCTAGTGCAG", "binding signal": "3270 fluorescence intensity (a.u.)"}
{"sequence": "TGACCGTTTGATTGAACGGTGAGAGAGAGACTTAAAGGAACGGAGTCACCTAGTGCAG", "binding signal": "20900 fluorescence intensity (a.u.)"}
{"sequence": "CCCTCGTCAATTCGTTAATCATATTTCTACTAACCTAAGGCGGAGTCACCTAGTGCAG", "binding signal": "11500 fluorescence intensity (a.u.)"}
{"sequence": "CATTTTAATTTAGACCACCATATTCTATCCATCTCCAAGTCGGAGTCACCTAGTGCAG", "binding signal": "8420 fluorescence intensity (a.u.)"}
{"sequence": "TCACTAAATAAATGATTAACTGTTCAATAGATCCTAAACCCGGAGTCACCTAGTGCAG", "binding signal": "22300 fluorescence intensity (a.u.)"}
{"sequence": "GGTGACACACTTCTGATTGTGCACATATGTGGCATTCTGTCGGAGTCACCTAGTGCAG", "binding signal": "6860 fluorescence intensity (a.u.)"}
{"sequence": "ATGATAAATTACTCCACAAATATGCAAGATAAAATTTAACCGGAGTCACCTAGTGCAG", "binding signal": "9400 fluorescence intensity (a.u.)"}
{"sequence": "TCCGATTAATGTGGGAATTTCTAGCCCTCACAGCGAACGTCGGAGTCACCTAGTGCAG", "binding signal": "5780 fluorescence intensity (a.u.)"}
{"sequence": "ACAGATTGAGAGGGAGCTCAGGGAACCAGTCTCACAAAATCGGAGTCACCTAGTGCAG", "binding signal": "8100 fluorescence intensity (a.u.)"}
{"sequence": "CAGATTAAACTGAATTATTACGAGATTGGCTTATGTGTGTCGGAGTCACCTAGTGCAG", "binding signal": "30500 fluorescence intensity (a.u.)"}
{"sequence": "CGCCCTAGATTGAGCCAACCTTTTAAAATCGTGTTAGAGCCGGAGTCACCTAGTGCAG", "binding signal": "16700 fluorescence intensity (a.u.)"}
{"sequence": "GAATCTAGATTGACTGGTTTCACCACAAGAAACCTATCCACGGAGTCACCTAGTGCAG", "binding signal": "45700 fluorescence intensity (a.u.)"}
{"sequence": "TAAACTGGCCGTAATTTAGCGTAGCTAAATTGTAAAACGCCGGAGTCACCTAGTGCAG", "binding signal": "13200 fluorescence intensity (a.u.)"}
{"sequence": "TACTGGTGCTTAATTGCATTGGCATTGTGCTGGCTCTATACGGAGTCACCTAGTGCAG", "binding signal": "3150 fluorescence intensity (a.u.)"}
{"sequence": "TAGAATAAATTGATTTAATTAAATGTAACATTAAATATATCGGAGTCACCTAGTGCAG", "binding signal": "10100 fluorescence intensity (a.u.)"}
{"sequence": "AGGTTCTCTTAAAATGTCAATCAAAGCATGGGCGACCTCCCGGAGTCACCTAGTGCAG", "binding signal": "18700 fluorescence intensity (a.u.)"}
{"sequence": "TGGGATAACACATGTATAATTAGGCCGACCGATCTACTTTCGGAGTCACCTAGTGCAG", "binding signal": "3520 fluorescence intensity (a.u.)"}
{"sequence": "GTTGACGACGATGACAATGATTAGTTGCCCAAAGGTTATACGGAGTCACCTAGTGCAG", "binding signal": "14900 fluorescence intensity (a.u.)"}
{"sequence": "TATGTTAAGATGATTGAAGCATATATCATGTCAGGGAAAGCGGAGTCACCTAGTGCAG", "binding signal": "22600 fluorescence intensity (a.u.)"}
{"sequence": "CTAAAATTAGAACCATGCCAATTTAATCACATTTTCCGTCCGGAGTCACCTAGTGCAG", "binding signal": "10400 fluorescence intensity (a.u.)"}
{"sequence": "AATGATTGAAGGATATCCATTTGAATGATGGTATGCTTTACGGAGTCACCTAGTGCAG", "binding signal": "43000 fluorescence intensity (a.u.)"}
{"sequence": "GTTAATATATTGAGCAAATTATTCAGTACATCACAGCTCTCGGAGTCACCTAGTGCAG", "binding signal": "7160 fluorescence intensity (a.u.)"}
{"sequence": "GGAGATGATGATTTACCTGTGATCTGTTTGGTCCTTGAGCCGGAGTCACCTAGTGCAG", "binding signal": "19400 fluorescence intensity (a.u.)"}
{"sequence": "ATCAAATTCCAATTCCAATTCCATTTTCTCGATCAAACACCGGAGTCACCTAGTGCAG", "binding signal": "3850 fluorescence intensity (a.u.)"}
{"sequence": "AGTAATTGCTAATTGCTACTGCTAACTGGGGATTATCTCTCGGAGTCACCTAGTGCAG", "binding signal": "32300 fluorescence intensity (a.u.)"}
{"sequence": "ATGATCAATCAGTAGATTATGCCCTGGTTATTCTTTATAACGGAGTCACCTAGTGCAG", "binding signal": "25400 fluorescence intensity (a.u.)"}
{"sequence": "ATTATATAAATGAGCTATTAGATTGCCTATAGATGGATTACGGAGTCACCTAGTGCAG", "binding signal": "3900 fluorescence intensity (a.u.)"}
{"sequence": "AGCAACTTAGGTTAATTTTAATTAGGTGTCATTTAGTTTTCGGAGTCACCTAGTGCAG", "binding signal": "4900 fluorescence intensity (a.u.)"}
{"sequence": "TTTTGATAATATATTTGACATGCAAGAATGCCTTTTACGTCGGAGTCACCTAGTGCAG", "binding signal": "4830 fluorescence intensity (a.u.)"}
{"sequence": "CATAATTGTTTTCTGAGTAAATTTCACAAACTGCAATTGTCGGAGTCACCTAGTGCAG", "binding signal": "42100 fluorescence intensity (a.u.)"}
{"sequence": "AATTAAGATATGATTAGGACTTTATGTAACAGAGGGAGCCCGGAGTCACCTAGTGCAG", "binding signal": "15000 fluorescence intensity (a.u.)"}
{"sequence": "GTATCAATTATCAAACTTACCGAGGGTGGTGGCTGGTGCGCGGAGTCACCTAGTGCAG", "binding signal": "18600 fluorescence intensity (a.u.)"}
{"sequence": "ACCCACTGATGGCAACTGTTAAACTAGCTCCAATTGTTTTCGGAGTCACCTAGTGCAG", "binding signal": "3200 fluorescence intensity (a.u.)"}
{"sequence": "ACAGTGATTTGTATCTTTGTCAGCACTATACATGAAAATACGGAGTCACCTAGTGCAG", "binding signal": "11700 fluorescence intensity (a.u.)"}
